The source of these data is patent US20240076343A1 (CEPHALON, published 2024).

Assay [1] concerns the target T1, recombinant human CD25 extracellular domain, C-terminal poly-histidine tagged (human, UniProt P01589 22-240).
T1 construct: also called CD25/IL-2Rα; IL-2Rα
T1 sequence: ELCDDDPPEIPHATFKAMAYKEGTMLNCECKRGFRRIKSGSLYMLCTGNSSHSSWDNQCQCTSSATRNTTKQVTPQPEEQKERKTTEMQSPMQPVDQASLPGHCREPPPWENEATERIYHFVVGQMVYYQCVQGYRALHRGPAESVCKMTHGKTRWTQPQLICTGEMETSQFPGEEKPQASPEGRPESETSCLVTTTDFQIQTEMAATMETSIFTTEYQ
In words: BLI (Octet). (BLI is a label-free optical method that tracks binding on a fibre tip over time.)

For assay [2], the target named is T2, recombinant human CD122 extracellular domain, C-terminal poly-histidine tagged (human, UniProt P14784 27-240).
T2 construct: also called CD122/IL-2Rβ; IL-2Rβ
T2 sequence: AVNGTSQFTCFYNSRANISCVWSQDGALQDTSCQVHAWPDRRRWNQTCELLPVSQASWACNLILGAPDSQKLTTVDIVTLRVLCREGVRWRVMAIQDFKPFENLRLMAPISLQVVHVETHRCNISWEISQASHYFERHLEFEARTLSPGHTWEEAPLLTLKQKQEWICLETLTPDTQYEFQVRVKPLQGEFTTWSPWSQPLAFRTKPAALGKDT
Put plainly: BLI (Octet).

B1: 1H3-hIgG1-L6-hIL-2 (D20A/E95A/Q126D) (other)
heavy: EVQLVESGGGLVQPGRSLKLSCAVSGFTFSDYAMAWVRQAPKKGLEWVATISYDGSRTYYRDSVKGRFTISRDNAKITLYLQMDSLRSEDTATYYCARHGSGYFDYWGQGVMVTVSS[not shown - human IgG1 constant region]SGGGGSAPTSSSTKKTQLQLEHLLLALQMILNGINNYKNPKLTRMLTFKFYMPKKATELKHLQCLEEELKPLEEVLNLAQSKNFHLRPRDLISNINVIVLALKGSETTFMCEYADETATIVEFLNRWITFCDSIISTLT
light: DTVLTQSPALAVSPGERVTISCRASESVRTGVHWYQQKPGQQPKLLIYGASNLESGVPARFSGSGSGTDFTLTIDPVEADDTATYFCQQSWNDPFTFGSGTKLEIKRTVAAPSVFIFPPSDEQLKSGTASVVCLLNNFYPREAKVQWKVDNALQSGNSQESVTEQDSKDSTYSLSSTLTLSKADYEKHKVYACEVTHQGLSSPVTKSFNRGEC
notes: Built as m13
Turning to B1, in assay [1], the dissociation constant (Kd) came out at 3.34 nM, the dissociation rate constant (koff) amounted to 0.000162 s⁻¹ and the association rate constant (kon) worked out at 48700 M⁻¹ s⁻¹. Moreover, in assay [2], the binding result is given as “no binding (tested: 300 nM)”.

B2: 1H3-hIgG1-L6-hIL-2 (E62K) (other)
heavy: EVQLVESGGGLVQPGRSLKLSCAVSGFTFSDYAMAWVRQAPKKGLEWVATISYDGSRTYYRDSVKGRFTISRDNAKITLYLQMDSLRSEDTATYYCARHGSGYFDYWGQGVMVTVSS[not shown - about 450 residues with a human IgG1 Fc and changes]
light: DTVLTQSPALAVSPGERVTISCRASESVRTGVHWYQQKPGQQPKLLIYGASNLESGVPARFSGSGSGTDFTLTIDPVEADDTATYFCQQSWNDPFTFGSGTKLEIKRTVAAPSVFIFPPSDEQLKSGTASVVCLLNNFYPREAKVQWKVDNALQSGNSQESVTEQDSKDSTYSLSSTLTLSKADYEKHKVYACEVTHQGLSSPVTKSFNRGEC
notes: Built as m13
For the molecule B2, the binding result in assay [1] is reported as “no binding (tested: 300 nM)”.

B3: 1H3-hIgG1-L6-hIL-2 (S87A) (other)
heavy: EVQLVESGGGLVQPGRSLKLSCAVSGFTFSDYAMAWVRQAPKKGLEWVATISYDGSRTYYRDSVKGRFTISRDNAKITLYLQMDSLRSEDTATYYCARHGSGYFDYWGQGVMVTVSS[not shown - about 450 residues with a human IgG1 Fc and changes]
light: DTVLTQSPALAVSPGERVTISCRASESVRTGVHWYQQKPGQQPKLLIYGASNLESGVPARFSGSGSGTDFTLTIDPVEADDTATYFCQQSWNDPFTFGSGTKLEIKRTVAAPSVFIFPPSDEQLKSGTASVVCLLNNFYPREAKVQWKVDNALQSGNSQESVTEQDSKDSTYSLSSTLTLSKADYEKHKVYACEVTHQGLSSPVTKSFNRGEC
notes: Built as m13
Consider B3, for which, in assay [2], the Kd was 7.09 nM, the koff came to 0.00234 s⁻¹ and the on-rate (kon) is 331000 M⁻¹ s⁻¹.

B4: 1H3-hIgG1-L6-hIL-2 (N88I) (other)
heavy: EVQLVESGGGLVQPGRSLKLSCAVSGFTFSDYAMAWVRQAPKKGLEWVATISYDGSRTYYRDSVKGRFTISRDNAKITLYLQMDSLRSEDTATYYCARHGSGYFDYWGQGVMVTVSS[not shown - about 450 residues with a human IgG1 Fc and changes]
light: DTVLTQSPALAVSPGERVTISCRASESVRTGVHWYQQKPGQQPKLLIYGASNLESGVPARFSGSGSGTDFTLTIDPVEADDTATYFCQQSWNDPFTFGSGTKLEIKRTVAAPSVFIFPPSDEQLKSGTASVVCLLNNFYPREAKVQWKVDNALQSGNSQESVTEQDSKDSTYSLSSTLTLSKADYEKHKVYACEVTHQGLSSPVTKSFNRGEC
notes: Built as m13
Regarding B4, the binding result in assay [2] is on record as “no binding (tested: 300 nM)”.

B5: 1H3-hIgG1-L6-hIL-2 (D20H) (other)
heavy: EVQLVESGGGLVQPGRSLKLSCAVSGFTFSDYAMAWVRQAPKKGLEWVATISYDGSRTYYRDSVKGRFTISRDNAKITLYLQMDSLRSEDTATYYCARHGSGYFDYWGQGVMVTVSS[not shown - about 450 residues with a human IgG1 Fc and changes]
light: DTVLTQSPALAVSPGERVTISCRASESVRTGVHWYQQKPGQQPKLLIYGASNLESGVPARFSGSGSGTDFTLTIDPVEADDTATYFCQQSWNDPFTFGSGTKLEIKRTVAAPSVFIFPPSDEQLKSGTASVVCLLNNFYPREAKVQWKVDNALQSGNSQESVTEQDSKDSTYSLSSTLTLSKADYEKHKVYACEVTHQGLSSPVTKSFNRGEC
notes: Built as m13
Turning to B5, in assay [1], the dissociation constant (Kd) is 1.13 nM, the dissociation rate constant (koff) is 0.000212 s⁻¹ and the kon was determined as 188000 M⁻¹ s⁻¹. Further, the binding result in assay [2] was “no binding (tested: 300 nM)”.

B6: 1H3-hIgG1-L6-hIL-2 (D20F) (other)
heavy: EVQLVESGGGLVQPGRSLKLSCAVSGFTFSDYAMAWVRQAPKKGLEWVATISYDGSRTYYRDSVKGRFTISRDNAKITLYLQMDSLRSEDTATYYCARHGSGYFDYWGQGVMVTVSS[not shown - about 450 residues with a human IgG1 Fc and changes]
light: DTVLTQSPALAVSPGERVTISCRASESVRTGVHWYQQKPGQQPKLLIYGASNLESGVPARFSGSGSGTDFTLTIDPVEADDTATYFCQQSWNDPFTFGSGTKLEIKRTVAAPSVFIFPPSDEQLKSGTASVVCLLNNFYPREAKVQWKVDNALQSGNSQESVTEQDSKDSTYSLSSTLTLSKADYEKHKVYACEVTHQGLSSPVTKSFNRGEC
notes: Built as m13
As to B6, in assay [1], the Kd worked out at 1.57 nM, the koff is 0.000275 s⁻¹ and the kon was found to be 175000 M⁻¹ s⁻¹. Further, the binding result in assay [2] was “no binding (tested: 300 nM)”.

B7: 1H3-hIgG1-L6-hIL-2 (R81A) (other)
heavy: EVQLVESGGGLVQPGRSLKLSCAVSGFTFSDYAMAWVRQAPKKGLEWVATISYDGSRTYYRDSVKGRFTISRDNAKITLYLQMDSLRSEDTATYYCARHGSGYFDYWGQGVMVTVSS[not shown - about 450 residues with a human IgG1 Fc and changes]
light: DTVLTQSPALAVSPGERVTISCRASESVRTGVHWYQQKPGQQPKLLIYGASNLESGVPARFSGSGSGTDFTLTIDPVEADDTATYFCQQSWNDPFTFGSGTKLEIKRTVAAPSVFIFPPSDEQLKSGTASVVCLLNNFYPREAKVQWKVDNALQSGNSQESVTEQDSKDSTYSLSSTLTLSKADYEKHKVYACEVTHQGLSSPVTKSFNRGEC
notes: Built as m13
Take B7: in assay [2], the Kd stood at 7.08 nM, the off-rate (koff) is 0.00156 s⁻¹ and the kon turned out to be 220000 M⁻¹ s⁻¹.

B8: 1H3-hIgG1-L6-hIL-2 (N88Y) (other)
heavy: EVQLVESGGGLVQPGRSLKLSCAVSGFTFSDYAMAWVRQAPKKGLEWVATISYDGSRTYYRDSVKGRFTISRDNAKITLYLQMDSLRSEDTATYYCARHGSGYFDYWGQGVMVTVSS[not shown - about 450 residues with a human IgG1 Fc and changes]
light: DTVLTQSPALAVSPGERVTISCRASESVRTGVHWYQQKPGQQPKLLIYGASNLESGVPARFSGSGSGTDFTLTIDPVEADDTATYFCQQSWNDPFTFGSGTKLEIKRTVAAPSVFIFPPSDEQLKSGTASVVCLLNNFYPREAKVQWKVDNALQSGNSQESVTEQDSKDSTYSLSSTLTLSKADYEKHKVYACEVTHQGLSSPVTKSFNRGEC
notes: Built as m13
On to B8, for which, in assay [2], the binding result is “no binding (tested: 300 nM)”.

B9: 1H3-hIgG1-L6-hIL-2 (E62R) (other)
heavy: EVQLVESGGGLVQPGRSLKLSCAVSGFTFSDYAMAWVRQAPKKGLEWVATISYDGSRTYYRDSVKGRFTISRDNAKITLYLQMDSLRSEDTATYYCARHGSGYFDYWGQGVMVTVSS[not shown - about 450 residues with a human IgG1 Fc and changes]
light: DTVLTQSPALAVSPGERVTISCRASESVRTGVHWYQQKPGQQPKLLIYGASNLESGVPARFSGSGSGTDFTLTIDPVEADDTATYFCQQSWNDPFTFGSGTKLEIKRTVAAPSVFIFPPSDEQLKSGTASVVCLLNNFYPREAKVQWKVDNALQSGNSQESVTEQDSKDSTYSLSSTLTLSKADYEKHKVYACEVTHQGLSSPVTKSFNRGEC
notes: Built as m13
Take B9: in assay [1], the binding result is reported as “no binding (tested: 300 nM)”.

B10: 1H3-hIgG1-L6-hIL-2 (N88R) (other)
heavy: EVQLVESGGGLVQPGRSLKLSCAVSGFTFSDYAMAWVRQAPKKGLEWVATISYDGSRTYYRDSVKGRFTISRDNAKITLYLQMDSLRSEDTATYYCARHGSGYFDYWGQGVMVTVSS[not shown - about 450 residues with a human IgG1 Fc and changes]
light: DTVLTQSPALAVSPGERVTISCRASESVRTGVHWYQQKPGQQPKLLIYGASNLESGVPARFSGSGSGTDFTLTIDPVEADDTATYFCQQSWNDPFTFGSGTKLEIKRTVAAPSVFIFPPSDEQLKSGTASVVCLLNNFYPREAKVQWKVDNALQSGNSQESVTEQDSKDSTYSLSSTLTLSKADYEKHKVYACEVTHQGLSSPVTKSFNRGEC
notes: Built as m13
Regarding B10, the binding result in assay [2] is “no binding (tested: 300 nM)”.

B11: 1H3-hIgG1-L6-hIL-2 (D20I) (other)
heavy: EVQLVESGGGLVQPGRSLKLSCAVSGFTFSDYAMAWVRQAPKKGLEWVATISYDGSRTYYRDSVKGRFTISRDNAKITLYLQMDSLRSEDTATYYCARHGSGYFDYWGQGVMVTVSS[not shown - about 450 residues with a human IgG1 Fc and changes]
light: DTVLTQSPALAVSPGERVTISCRASESVRTGVHWYQQKPGQQPKLLIYGASNLESGVPARFSGSGSGTDFTLTIDPVEADDTATYFCQQSWNDPFTFGSGTKLEIKRTVAAPSVFIFPPSDEQLKSGTASVVCLLNNFYPREAKVQWKVDNALQSGNSQESVTEQDSKDSTYSLSSTLTLSKADYEKHKVYACEVTHQGLSSPVTKSFNRGEC
notes: Built as m13
Take B11: in assay [1], the equilibrium dissociation constant (Kd) is 1.16 nM, the off-rate constant (koff) was 0.000198 s⁻¹ and the on-rate (kon) was determined as 170000 M⁻¹ s⁻¹. Also, in assay [2], the binding result was “no binding (tested: 300 nM)”.

Usually Kd stands for a measure of binding affinity in units of concentration. The term koff denotes the first-order rate constant of dissociation. As usually defined, the kon is a measure of how fast the partners come together.
